# Data as given in the supplement of paper PMC8728848.
# Some of the results follow.
# Tests used:
# Assay in all cases: glycan array binding signal (z-score within array); higher = stronger binding
# Details in all cases: glycan notation: IUPAC condensed, linker removed
# [1] = biological target: Fuc(a1-2)[GalNAc(b1-3)]Gal
# Method in brief: (§1)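 Glycan array data were curated from 3228 arrays in the Consortium for Functional Glycomics database and kept only where the protein sequence was available. Glycan names were converted to IUPAC-condensed notation, and columns mapping to the same glycan were averaged. The binding signal is a within-array Z-score, averaged across arrays of the same protein sequence at different concentrations or buffers and across linkers. Negative Z-scores can be read as non-binding.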
# Fuc(a1-3)GlcNAc = biological target: Fuc(a1-3)GlcNAc
# Method in brief: as §1
# [2] = biological target: Fuc(a1-3)[Gal(b1-4)]Glc6S
# Method in brief: as §1
# [3] = biological target: Fuc(a1-3)[Gal(b1-4)]GlcNAc
# Method in brief: as §1
# [4] = biological target: Fuc(a1-3)[Gal(b1-4)]GlcNAc(b1-2)Man
# Method in brief: as §1
# [5] = biological target: Fuc(a1-3)[Gal(b1-4)]GlcNAc(b1-2)Man(a1-3)[Fuc(a1-3)[Gal(b1-4)]GlcNAc(b1-2)Man(a1-6)]Man(b1-4)GlcNAc(b1-4)GlcNAc
# Method in brief: as §1
# [6] = biological target: Fuc(a1-3)[Gal(b1-4)]GlcNAc(b1-2)Man(a1-3)[Fuc(a1-3)[Gal(b1-4)]GlcNAc(b1-2)Man(a1-6)]Man(b1-4)GlcNAc(b1-4)[Fuc(a1-6)]GlcNAc
# Method in brief: as §1
# [7] = biological target: Fuc(a1-3)[Gal(b1-4)]GlcNAc(b1-3)Gal(b1-3)[Fuc(a1-4)]GlcNAc
# Method in brief: as §1
# [8] = biological target: Fuc(a1-3)[Gal(b1-4)]GlcNAc(b1-3)Gal(b1-4)[Fuc(a1-3)]GlcNAc
# Method in brief: as §1
# [9] = biological target: Fuc(a1-3)[Gal(b1-4)]GlcNAc(b1-3)Gal(b1-4)[Fuc(a1-3)]GlcNAc(b1-3)Gal(b1-4)[Fuc(a1-3)]GlcNAc
# Method in brief: as §1
# [10] = biological target: Fuc(a1-3)[Gal(b1-4)]GlcNAc(b1-3)GalNAc
# Method in brief: as §1
# [11] = biological target: Fuc(a1-3)[Gal(b1-4)]GlcNAc(b1-6)GalNAc
# Method in brief: as §1
# [12] = biological target: Fuc(a1-3)[Gal(b1-4)]GlcNAc(b1-6)[Gal(b1-3)GlcNAc(b1-3)]Gal(b1-4)Glc
# Method in brief: as §1
# [13] = biological target: Fuc(a1-3)[Gal(b1-4)]GlcNAc6S
# Method in brief: as §1
# [14] = biological target: Fuc(a1-3)[Gal3S(b1-4)]Glc
# Method in brief: as §1
# [15] = biological target: Fuc(a1-3)[Gal3S(b1-4)]GlcNAc
# Method in brief: as §1
# [16] = biological target: Fuc(a1-3)[Gal3S(b1-4)]GlcNAc6S
# Method in brief: as §1
# [17] = biological target: Fuc(a1-3)[GalNAc(b1-4)]GlcNAc
# Method in brief: as §1
# [18] = biological target: Fuc(a1-3)[GalNAc(b1-4)]GlcNAc6S
# Method in brief: as §1
# Fuc(a1-4)GlcNAc = biological target: Fuc(a1-4)GlcNAc
# Method in brief: as §1
# Fuc(b1-3)GlcNAc = biological target: Fuc(b1-3)GlcNAc
# Method in brief: as §1
# Gal(a1-2)Gal = biological target: Gal(a1-2)Gal
# Method in brief: as §1
# Gal(a1-3)Gal = biological target: Gal(a1-3)Gal
# Method in brief: as §1
# Gal(a1-3)Gal(b1-3)GlcNAc = biological target: Gal(a1-3)Gal(b1-3)GlcNAc
# Method in brief: as §1
# [19] = biological target: Gal(a1-3)Gal(b1-3)GlcNAc(b1-2)Man
# Method in brief: as §1
# [20] = biological target: Gal(a1-3)Gal(b1-3)GlcNAc(b1-2)Man(a1-3)[Gal(a1-3)Gal(b1-3)GlcNAc(b1-2)Man(a1-6)]Man(b1-4)GlcNAc(b1-4)GlcNAc
# Method in brief: as §1
# [21] = biological target: Gal(a1-3)Gal(b1-3)GlcNAc(b1-3)GalNAc
# Method in brief: as §1
# [22] = biological target: Gal(a1-3)Gal(b1-3)GlcNAc(b1-6)GalNAc
# Method in brief: as §1
# [23] = biological target: Gal(a1-3)Gal(b1-3)[Fuc(a1-4)]GlcNAc(b1-2)Man(a1-3)[Gal(a1-3)Gal(b1-3)[Fuc(a1-4)]GlcNAc(b1-2)Man(a1-6)]Man(b1-4)GlcNAc(b1-4)GlcNAc
# Method in brief: as §1
# Gal(a1-3)Gal(b1-4)Glc = biological target: Gal(a1-3)Gal(b1-4)Glc
# Method in brief: as §1
# Gal(a1-3)Gal(b1-4)GlcNAc = biological target: Gal(a1-3)Gal(b1-4)GlcNAc
# Method in brief: as §1
# [24] = biological target: Gal(a1-3)Gal(b1-4)GlcNAc(b1-2)Man
# Method in brief: as §1
# [25] = biological target: Gal(a1-3)Gal(b1-4)GlcNAc(b1-2)Man(a1-3)[Gal(a1-3)Gal(b1-4)GlcNAc(b1-2)Man(a1-6)]Man(b1-4)GlcNAc(b1-4)GlcNAc
# Method in brief: as §1
# [26] = biological target: Gal(a1-3)Gal(b1-4)GlcNAc(b1-3)GalNAc
# Method in brief: as §1
# [27] = biological target: Gal(a1-3)Gal(b1-4)GlcNAc(b1-6)GalNAc
# Method in brief: as §1
# [28] = biological target: Gal(a1-3)Gal(b1-4)[Fuc(a1-3)]GlcNAc
# Method in brief: as §1
# [29] = biological target: Gal(a1-3)Gal(b1-4)[Fuc(a1-3)]GlcNAc(b1-2)Man(a1-3)[Gal(a1-3)Gal(b1-4)[Fuc(a1-3)]GlcNAc(b1-2)Man(a1-6)]Man(b1-4)GlcNAc(b1-4)GlcNAc
# Method in brief: as §1
# Gal(a1-3)GalNAc = biological target: Gal(a1-3)GalNAc
# Method in brief: as §1
# [30] = biological target: Gal(a1-3)[Gal(a1-4)]Gal(b1-4)GlcNAc
# Method in brief: as §1
# [31] = biological target: Gal(a1-4)Gal(b1-3)GlcNAc(b1-2)Man(a1-3)[Gal(a1-4)Gal(b1-3)GlcNAc(b1-2)Man(a1-6)]Man(b1-4)GlcNAc(b1-4)GlcNAc
# Method in brief: as §1
# Gal(a1-4)Gal(b1-4)Glc = biological target: Gal(a1-4)Gal(b1-4)Glc
# Method in brief: as §1
# Gal(a1-4)Gal(b1-4)GlcNAc = biological target: Gal(a1-4)Gal(b1-4)GlcNAc
# Method in brief: as §1
# [32] = biological target: Gal(a1-4)Gal(b1-4)GlcNAc(b1-2)Man(a1-3)[Gal(a1-4)Gal(b1-4)GlcNAc(b1-2)Man(a1-6)]Man(b1-4)GlcNAc(b1-4)GlcNAc
# Method in brief: as §1
# [33] = biological target: Gal(a1-4)Gal(b1-4)GlcNAc(b1-3)Gal(b1-4)Glc
# Method in brief: as §1
# Gal(a1-4)GlcNAc = biological target: Gal(a1-4)GlcNAc
# Method in brief: as §1
binder,measurement,setting,value
"LBL-152 (Laetiporus bicolor), B0D650 (protein) MSNEYNPPLGIAFRLCGLASDRVLFSRVSPSPEVFHHPKSEVYPDQWFVAIPGSGQNAGCYAIKSKNTGKVLFSRMSPDPRVGHIDGDGKYPDNWFKFEAGSGKYAGYFRLRAVASDTVLVSRTSTGTDTQVINYPATSAKYDDQYFTILFDHHHHHH",glycan array binding signal (z-score),[1],-0.157
same,glycan array binding signal (z-score),Fuc(a1-3)GlcNAc,-0.155
same,glycan array binding signal (z-score),[2],-0.156
same,glycan array binding signal (z-score),[3],-0.157
same,glycan array binding signal (z-score),[4],-0.155
same,glycan array binding signal (z-score),[5],-0.154
same,glycan array binding signal (z-score),[6],-0.145
same,glycan array binding signal (z-score),[7],-0.157
same,glycan array binding signal (z-score),[8],-0.151
same,glycan array binding signal (z-score),[9],-0.149
same,glycan array binding signal (z-score),[10],-0.156
same,glycan array binding signal (z-score),[11],-0.155
same,glycan array binding signal (z-score),[12],-0.151
same,glycan array binding signal (z-score),[13],-0.146
same,glycan array binding signal (z-score),[14],-0.154
same,glycan array binding signal (z-score),[15],-0.15
same,glycan array binding signal (z-score),[16],-0.157
same,glycan array binding signal (z-score),[17],-0.141
same,glycan array binding signal (z-score),[18],-0.156
same,glycan array binding signal (z-score),Fuc(a1-4)GlcNAc,-0.151
same,glycan array binding signal (z-score),Fuc(b1-3)GlcNAc,-0.156
same,glycan array binding signal (z-score),Gal(a1-2)Gal,-0.155
same,glycan array binding signal (z-score),Gal(a1-3)Gal,-0.153
same,glycan array binding signal (z-score),Gal(a1-3)Gal(b1-3)GlcNAc,-0.157
same,glycan array binding signal (z-score),[19],-0.155
same,glycan array binding signal (z-score),[20],-0.153
same,glycan array binding signal (z-score),[21],-0.158
same,glycan array binding signal (z-score),[22],-0.163
same,glycan array binding signal (z-score),[23],-0.152
same,glycan array binding signal (z-score),Gal(a1-3)Gal(b1-4)Glc,-0.155
same,glycan array binding signal (z-score),Gal(a1-3)Gal(b1-4)GlcNAc,-0.156
same,glycan array binding signal (z-score),[24],-0.152
same,glycan array binding signal (z-score),[25],0.013
same,glycan array binding signal (z-score),[26],-0.152
same,glycan array binding signal (z-score),[27],-0.162
same,glycan array binding signal (z-score),[28],-0.155
same,glycan array binding signal (z-score),[29],-0.139
same,glycan array binding signal (z-score),Gal(a1-3)GalNAc,-0.15
same,glycan array binding signal (z-score),[30],-0.137
same,glycan array binding signal (z-score),[31],-0.153
same,glycan array binding signal (z-score),Gal(a1-4)Gal(b1-4)Glc,-0.14
same,glycan array binding signal (z-score),Gal(a1-4)Gal(b1-4)GlcNAc,-0.145
same,glycan array binding signal (z-score),[32],-0.132
same,glycan array binding signal (z-score),[33],-0.165
same,glycan array binding signal (z-score),Gal(a1-4)GlcNAc,-0.153
